# In PubChem BioAssay AID588855 (National Center for Advancing Translational Sciences (NCATS), 2011):
# Hit rate of the full screen: of about 410,000 compounds, about 5,000 (1.2%) were called active. The inconclusive results got no clear call from the source; some entries with a clear call stand among them for comparison. Calls follow the shape of the dose curve; as a rule, active = well fitted inhibition curve with a large enough effect; inconclusive = small, poorly fitted or top-dose-only effect; inactive = no such curve, though single readings can be large or run the other way. Potencies of inconclusive entries are doubtful fits and often do not repeat.
# Experiment: qHTS for Inhibitors of TGF-b; also: nearly all actives have a fitted effect of over 65% in size
# Conditions: HepG2 CAGA-GFP TGF-b/SMAD3 reporter, GFP fluorescence, 18 h, TGF-beta stimulated, 500 pg/mL final; series mostly up to 46.1 µM; activity, negative = inhibition: at the top concentration
# Outline: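 GFP signal (ex488/em500-530) from TGF-beta-stimulated HEPG2 CAGA-GFP cells, 500 pg/mL final, 18 h at 37 degrees C in DMEM plus 1% FBS, normalized to unstimulated and DMSO-stimulated controls.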
# % is scaled to controls: 0 for no effect and ±100 for the full control effect; potency is read from the fitted curve at half-maximal effect; tags tell the direction and shape of the fitted curve.
Compound,Potency,"activity, negative = inhibition"
CNCC[C@H](Oc1cccc2ccccc12)c1cccs1,"inconclusive: 22.4 µM [inhibitor, single point]",–
CC[C@H](C)[C@@H](C(=O)N1CCCC1c1nccs1)N(C)C(=O)[C@H](CC(C)C)N(C)C(=O)[C@H](Cc1ccc(OC)cc1)N(C)C(=O)/C=C(\C)OC (stereo not given in full),"inconclusive: 0.501 µM [inhibitor, full curve, poor fit]",–
COc1ccc(OCC(=O)N2CCN(Cc3c[nH]c4ccccc34)CC2)cc1,–,inactive: -53.4%
CCCC[N+]12CCC(CC1)C(=C(c1ccccc1)c1ccccc1)C2,–,inactive: -8.61%
Cc1cccc(OP(=O)(NCc2ccccc2)Oc2cccc(C)c2)c1,"inconclusive: 22.4 µM [inhibitor, single point]",–
CCCCOC(=O)COc1cc(C)cc2oc(=O)c3c(c12)CCC3,–,inactive: 22.7%
S=P(N1CCCCCC1)(N1CC1)N1CC1,–,inactive: 7.59%
O=C(c1ccccc1F)c1cn(Cc2ccc(F)cc2)c2ccccc12,"inconclusive: 17.8 µM [inhibitor, single point]",–
COc1ccc(N2C(=O)NC(=O)/C(=C\c3ccc([N+](=O)[O-])s3)C2=O)cc1,"inconclusive: 12.6 µM [inhibitor, partial curve, poor fit]",–
O=C1NCN(c2ccccc2)C12CCN(C(c1ccccc1)c1nnnn1C1CCCC1)CC2 (stereo not given),active: 11.2 µM,–
C=CCSC1=N/C(=C\c2cc(OC)c3c(c2)OCO3)C(=O)S1,"inconclusive: 35.5 µM [inhibitor, single point]",–
COc1ccc(CN2Cc3cnnn3-c3ccccc3C2C#N)cc1 (stereo not given),"inconclusive: 12.6 µM [inhibitor, partial curve, poor fit]",–
C=C1CCN(C(CC(C)C)C(=O)Nc2ccc(OC)cc2)S(=O)(=O)c2ccccc21 (stereo not given),"inconclusive: 7.08 µM [inhibitor, partial curve, poor fit]",–
COc1ccc(CNC(C)Cc2cccs2)cc1 (stereo not given),–,inactive: -5.15%
O=C1NC(=O)C(Cc2ccccc2)(Cc2ccccc2)C(=O)N1Cc1ccccc1,"inconclusive: 22.4 µM [inhibitor, single point]",–
COc1ccc(CCNC(=O)c2c(N)n(CCN3CCOCC3)c3nc4ccccc4nc23)cc1,"inconclusive: 35.5 µM [inhibitor, single point]",–
CC(=O)O[C@H]1C[C@@H]2CC[C@@H]3[C@H](CC[C@]4(C)C(=O)CC[C@@H]34)[C@@]2(C)C[C@@H]1OC(C)=O,–,inactive: -0.513%
C[C@]12CCC(=O)C=C1CC[C@@H]1[C@@H]2CC[C@]2(C)C(=O)CC[C@@H]12,–,inactive: 8.72%
CC(=O)OC(C)(C)/C=C/C(=O)C(C)(O)C1[C@H](O)C[C@@]2(C)C3CC=C4C(CC[C@@H](O)C4(C)C)[C@]3(CO)C(=O)C[C@]12C (stereo not given in full),"inconclusive: 17.8 µM [inhibitor, partial curve, poor fit]",–
CC(CNC(=O)c1ccc(CSc2nc3ccncc3n2Cc2ccc(F)cc2)cc1)c1ccccc1 (stereo not given),"inconclusive: 8.91 µM [inhibitor, partial curve, poor fit]",–

Compound,Potency,"activity, negative = inhibition"
COC(=O)C1=C(c2ccc(F)cc2F)C[C@@H]2CC[C@H]1N2C(=O)NCc1ccc(F)cc1,–,inactive: -2.38%
O=S(=O)(c1ccccc1C(F)(F)F)N1CCN(c2ncnc3sccc23)CC1,active: 12.6 µM,–
CC(C)NS(=O)(=O)c1ccc(OCC(=O)N2CCN(Cc3ccc4c(c3)OCO4)CC2)c(Cl)c1,"inconclusive: 10 µM [inhibitor, partial curve, poor fit]",–
Cc1cc(C)c(C(=O)N2CCC3(CC2)OCCO3)c(C)c1,"inconclusive: 17.8 µM [inhibitor, partial curve, poor fit]",–
CC(=O)c1ccc2c(c1)C1C(Cl)C(Sc3ccccc3[N+](=O)[O-])CC1C(c1ccccc1[N+](=O)[O-])N2 (stereo not given),–,inactive: -3%
CN(C)CCNC(=O)c1cccn(Cc2cccc(C(F)(F)F)c2)c1=O,"inconclusive: 17.8 µM [inhibitor, single point]",–
CC(C)OCCCNC(=O)c1c(N)n(Cc2cccs2)c2nc3ccccc3nc12,active: 17.8 µM,–
COc1ccccc1N1C(=O)NC(=O)/C(=C\c2cnn(-c3ccccc3)c2)C1=O,"inconclusive: 35.5 µM [inhibitor, single point]",–
CCCCOc1ccc(CCN)cc1Cl,"inconclusive: 35.5 µM [inhibitor, single point]",–
C[C@@H]1CN([C@@H](C)CO)C(=O)c2c(c3ccccc3n2C)-c2ccccc2CO[C@H]1CN(C)S(=O)(=O)c1ccc(C(F)(F)F)cc1,"inconclusive: 20 µM [inhibitor, single point]",–
O=c1[nH]c2ccccc2n1C1CCN(C(CCc2ccccc2)c2nnnn2C2CCCCC2)CC1 (stereo not given),"inconclusive: 5.01 µM [inhibitor, partial curve]",–
O=C(N=Nc1c(O)[nH]c(=O)[nH]c1=O)C1COc2ccccc2O1 (stereo not given),"inconclusive: 3.55 µM [inhibitor, single point]",–
Oc1ccc(Cl)cc1Cc1cc(Cl)ccc1O,"inconclusive: 11.2 µM [inhibitor, partial curve, poor fit]",–
Cc1c(C(=O)C(=O)N2CCOCC2)c2ccccc2n1Cc1ccccc1,"inconclusive: 25.1 µM [inhibitor, single point]",–
COC(=O)C1=C(c2ccc3ccccc3c2)C[C@@H]2CC[C@H]1N2C(=O)N1CCC(C)CC1,"inconclusive: 15.8 µM [inhibitor, single point]",–
Cc1ccc(C(O)P(=O)(OCCC(C)C)c2ccc(N(C)C)cc2)cc1 (stereo not given),"inconclusive: 17.8 µM [inhibitor, single point]",–
CCN(CC)S(=O)(=O)c1ccc(C)c(NCC(=O)Nc2ccc(C#N)c(Cl)c2)c1,"inconclusive: 35.5 µM [inhibitor, single point]",–
CN(C)C(=O)Oc1c(Cl)cc(Cl)c2ccccc12,–,inactive: 30.7%
COc1ccc2c(c1)C(c1ccc(N(CCCl)CCCl)cc1)=NCC2,"inconclusive: 35.5 µM [inhibitor, single point]",–
COc1cccc(-n2c(/C=C/c3ccccc3O)nc3ccccc3c2=O)c1,–,inactive: -0.493%
